Over roughly 81,000 sequences, “one-hybrid fitness for binding parS DNA” has its median near -0.17; the highest 2% begin near 0.51. Some of the results follow.
B1: Caulobacter ParB omega fusion; a variant is named by its letters at X, in order, B8GW30 (parent)
chain: MESVVVGEPGMSEGRRGLGRGLSALLGEVDAAPAQAPGEQLGGSREAPIEILQRNPDQPRRTFREEDLEDLSNSIREKGVLQPILVRPSPDTAGEYQIVAGERAWRAAQRAGLKTVPIMVRELDDLAVLEIGIIENVQRADLNVLEEALSYKVLMEKFERTQENIAQTIGKSXSHVANXMRLLXLPDEVQSYLVSGELTAXHARAIAAAADPVALAKQIIEGGLSVRETEALARKAPNLSAGKSKGGRPPRVKDTDTQALESDLSSVLGLDVSIDHRGSTGTLTITYATLEQLDDLCNRLTRGI

Variants of: B1
Assay: one-hybrid fitness for binding parS DNA (scaled: cognate 1, non-cognate 0); higher = stronger binding
Settings: with parS DNA site
Procedure, shortened: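 The reporter was HIS3, with the binding site 19 bp from the promoter, in E. coli USO used for bacterial one-hybrid selection of Caulobacter ParB libraries with four specificity codons randomised. Growth was on M9 lacking histidine, with 0.1 mM IPTG and 5 mM 3-AT, for 48 hours at 37°C. Illumina sequencing covered plasmids before and after selection; three replicate libraries were pooled and variants with under 10 reads dropped. A fitness score is the log change in variant-to-wild-type read ratio, rescaled to the cognate and non-cognate references.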

Variant	one-hybrid fitness for binding parS DNA
RHES	0.962
CWRL	≤ 0.2
GLMC	≤ 0.2
TNSH	≤ 0.2
TGAT	≤ 0.2
PKTT	≤ 0.2
IAQN	≤ 0.2
DTKH	≤ 0.2
TDLQ	≤ 0.2
RATC	0.982
SATL	≤ 0.2
GSLV	≤ 0.2
GFTY	≤ 0.2
MGFC	≤ 0.2
YLRD	≤ 0.2
TWVV	≤ 0.2
SVAV	≤ 0.2
QLTI	≤ 0.2
ATTC	≤ 0.2
HHPA	≤ 0.2
NRAE	≤ 0.2
FPNT	≤ 0.2
NCAP	≤ 0.2
PVLI	≤ 0.2
GYGS	≤ 0.2
QMAE	≤ 0.2

Variant	one-hybrid fitness for binding parS DNA
NCAV	≤ 0.2
KNRG	≤ 0.2
VIMC	≤ 0.2
KAYC	≤ 0.2
NMVF	≤ 0.2
PTGS	≤ 0.2
QWSR	≤ 0.2
NSAW	≤ 0.2
NMIA	≤ 0.2
TSHS	≤ 0.2
GSTA	≤ 0.2
IEMF	≤ 0.2
WPDT	≤ 0.2
SIPN	≤ 0.2
YRTC	0.228
TGNH	≤ 0.2
SPTM	≤ 0.2
RKVG	0.942
MAAS	≤ 0.2
TLVT	≤ 0.2
FRQC	≤ 0.2
PTGY	≤ 0.2
VSNV	≤ 0.2
VTRW	≤ 0.2
AGNS	≤ 0.2
LVGS	≤ 0.2

Variant	one-hybrid fitness for binding parS DNA
QFDN	≤ 0.2
VSTN	≤ 0.2
VQRL	≤ 0.2
PAVV	≤ 0.2
CNCR	≤ 0.2
PRPT	≤ 0.2
AFYL	≤ 0.2
SPEI	≤ 0.2
IMPS	≤ 0.2
YAAT	≤ 0.2
MSKM	≤ 0.2
MNTE	≤ 0.2
PVNV	≤ 0.2
TDPM	≤ 0.2
ATAW	≤ 0.2
HFHR	≤ 0.2
HCQW	≤ 0.2
YLPA	≤ 0.2
YCDC	≤ 0.2
VFGG	≤ 0.2
EKLR	≤ 0.2
RACI	≤ 0.2
PWRR	≤ 0.2
GATH	≤ 0.2
AAPA	≤ 0.2
CRYR	≤ 0.2

Variant	one-hybrid fitness for binding parS DNA
SDEY	≤ 0.2
AANG	≤ 0.2
ARRA	≤ 0.2
RNDG	0.679
KRGK	≤ 0.2
ARHS	≤ 0.2
QQVG	≤ 0.2
RRWT	0.682
VDTH	≤ 0.2
DYGF	≤ 0.2
NYFC	≤ 0.2
YRRM	≤ 0.2
GICP	≤ 0.2
QVAL	≤ 0.2
HLKD	≤ 0.2
RMRE	≤ 0.2
AKFY	0.303
LVEC	≤ 0.2
AKMR	≤ 0.2
DAPT	≤ 0.2
ALMV	≤ 0.2
STKM	≤ 0.2
AHSL	≤ 0.2
RSLN	0.443
VKMT	≤ 0.2
AAGC	≤ 0.2

Variant	one-hybrid fitness for binding parS DNA
IISS	≤ 0.2
KLYS	≤ 0.2
WLEG	≤ 0.2
FMSV	≤ 0.2
HLVV	≤ 0.2
LALR	≤ 0.2
LRDK	≤ 0.2
HQRT	≤ 0.2
PPYF	≤ 0.2
ECTR	≤ 0.2
KDSW	≤ 0.2
AKAS	≤ 0.2
CRDC	≤ 0.2
SLIP	≤ 0.2
PTRV	≤ 0.2
SEDW	≤ 0.2
TQTR	≤ 0.2
FIRA	≤ 0.2
QIHF	≤ 0.2
AQPY	≤ 0.2
QQIF	≤ 0.2
QMSA	≤ 0.2
WPRY	≤ 0.2
PLTH	≤ 0.2
DSLG	≤ 0.2
SLIV	≤ 0.2

Variant	one-hybrid fitness for binding parS DNA
VLLG	≤ 0.2
HNWG	≤ 0.2
YSAM	≤ 0.2
GYEG	≤ 0.2
CHQT	≤ 0.2
WQVS	≤ 0.2
SQEC	≤ 0.2
GGMR	≤ 0.2
SCTS	≤ 0.2
RAKL	≤ 0.2
SVFI	≤ 0.2
PRIM	≤ 0.2
NVRR	≤ 0.2
LTAK	≤ 0.2
RFRN	0.429
CQYT	≤ 0.2
VENG	≤ 0.2
PISR	≤ 0.2
HRKN	≤ 0.2
MKTC	≤ 0.2
TYPL	≤ 0.2
SDQG	≤ 0.2
VKCR	≤ 0.2
